# In all, about 270,000 compounds went through this assay and about 620 (0.23%) were called active. Inconclusive means that the source gave no clear call. Such entries were picked first, then a sample of the others. Calls come from the whole dose curve; as a rule, active = well fitted inhibition curve with a large enough effect in the polarisation, with a control signal flat (not every such curve was filed as active); inconclusive = small, poorly fitted or top-dose-only effect, or effect the other way, or a change in a side signal; inactive = no such curve, though single readings can be large or run the other way; the % refers to the polarisation. Potencies of inconclusive entries are doubtful fits and often do not repeat. “Side channel” marks fits to a control or component signal instead of the main read-out.
# Target: Menin (Homo sapiens) (UniProt O00255)
# Chain of UniProt O00255 (O00255 whole entry, looked up): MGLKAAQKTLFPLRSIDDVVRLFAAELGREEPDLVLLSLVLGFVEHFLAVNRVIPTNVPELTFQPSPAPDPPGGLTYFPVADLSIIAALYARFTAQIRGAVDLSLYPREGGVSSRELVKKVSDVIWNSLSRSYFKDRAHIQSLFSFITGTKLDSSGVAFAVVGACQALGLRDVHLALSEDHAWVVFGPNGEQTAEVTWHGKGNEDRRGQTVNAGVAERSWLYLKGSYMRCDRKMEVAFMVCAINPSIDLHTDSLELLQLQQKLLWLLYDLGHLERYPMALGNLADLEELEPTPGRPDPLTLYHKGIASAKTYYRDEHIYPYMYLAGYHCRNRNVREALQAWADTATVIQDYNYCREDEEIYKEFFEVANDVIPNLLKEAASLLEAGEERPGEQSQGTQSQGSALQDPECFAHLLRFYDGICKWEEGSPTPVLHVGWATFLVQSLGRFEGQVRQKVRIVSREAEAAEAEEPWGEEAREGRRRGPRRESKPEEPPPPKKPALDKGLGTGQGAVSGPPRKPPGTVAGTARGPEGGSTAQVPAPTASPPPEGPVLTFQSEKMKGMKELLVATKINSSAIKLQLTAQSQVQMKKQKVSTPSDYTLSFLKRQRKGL
# Experiment: qHTS Assay for Inhibitors Targeting the Menin-MLL Interaction in MLL Related Leukemias: Competition With Texas Red Labeled MLL-derived Mutant Peptide; for FP activity change, negative = inhibition: % of control where 0% means no effect
# Details: fluorescence polarization; FP activity change, negative = inhibition: at 61.6 µM (top of the series)
# Potency is the fitted concentration of half-maximal effect; tags give direction and shape of the fitted curve or compound fluorescence and quenching.
SMILES,Potency,"FP activity change, negative = inhibition"
CCCCNC(=O)C1CC(=O)N(CCC(C)C)C1 (stereo unspecified),"inconclusive: 35.5 µM [inhibitor, single point]",–
O=C(O)CC/C(=C\c1cccc(NC(=O)c2ccccc2Cl)c1)c1nc2ccccc2s1,"inconclusive: 20 µM [quencher, side channel, single point]",–
Cc1cc(S(=O)(=O)N2CCc3ccccc3C2)ccc1F,"inconclusive: 35.5 µM [inhibitor, single point]",–
O=C(CCN1C(=O)/C(=C/C=C/c2ccccc2)SC1=S)Nc1nccs1,"inconclusive: 5.62 µM [quencher, side channel, partial curve]",–
COc1ccccc1OCc1ccc(C(=O)N2CCN3CCCC3C2)cc1 (stereo unspecified),"inconclusive: 20 µM [fluorescent, side channel, partial curve]",–
O=C(Cn1cnc2sc(-c3ccccc3)cc2c1=O)NCc1ccccc1,"inconclusive: 39.8 µM [inhibitor, single point]",–
O=C(Oc1cc(OC(=O)c2ccccc2)c2c(c1)OC(c1ccc(OC(=O)c3ccccc3)c(OC(=O)c3ccccc3)c1)[C@@H](OC(=O)c1ccccc1)C2)c1ccccc1 (stereo partly specified),"inconclusive: 35.5 µM [inhibitor, partial curve]",–
CCOC(=O)C1(Cc2ccc(Cl)cc2)CCN(C(C)Cc2ccc(O)c(OC)c2)CC1 (stereo unspecified),"inconclusive: 8.91 µM [fluorescent, side channel, partial curve]",–
Cc1cccc(-c2noc(CNC(=O)Nc3ccc(F)cc3)n2)c1,"inconclusive: 39.8 µM [quencher, side channel, single point]",–
Cc1n[nH]c(C)c1Sc1ccccc1N=Cc1cc(Cl)cc([N+](=O)[O-])c1O,"inconclusive: 22.4 µM [quencher, side channel, single point]",–
Cc1ccc(SCc2ccc(C(=O)Nc3nccs3)o2)cc1,"inconclusive: 35.5 µM [quencher, side channel, single point]",–
CC(C)[C@H](NC(=O)c1ccco1)C(=O)OCc1cc(=O)n2c(n1)sc1ccccc12,"inconclusive: 39.8 µM [quencher, side channel, single point]",–
O=C(CSc1nnc(-c2cccnc2)n1C1CCCCC1)NC1CCCCC1,"inconclusive: 12.6 µM [fluorescent, side channel, partial curve]",–
O=C(Cc1cccs1)Nc1nc2ccccc2s1,"inconclusive: 31.6 µM [quencher, side channel, single point]",–
Cc1cccc(CNc2nc(-c3cccc(NS(C)(=O)=O)c3)nc3ccccc23)c1,"inconclusive: 31.6 µM [quencher, side channel, single point]",–
COC(=O)c1ccc2c(=O)n(CCCCCC(=O)NCc3ccccc3)c(=O)[nH]c2c1,"inconclusive: 15.8 µM [inhibitor, partial curve]",–
CCCCc1c(O)nc(SCC(=O)N2CCOCC2)n(-c2ccccc2OC)c1=O,–,inactive: -17.4%
COc1ccc(NC(=O)c2sc3nc(N4CCCC4)c4c(c3c2N)CC(C)(C)OC4)c(OC)c1,"inconclusive: 8.91 µM [quencher, side channel, partial curve]",–

SMILES,Potency,"FP activity change, negative = inhibition"
COc1ccccc1N1CCN(C(c2ccc(C)cc2)c2nnnn2C(C)C)CC1 (stereo unspecified),"inconclusive: 8.91 µM [fluorescent, side channel, partial curve]",–
O=c1c(-c2ccc(F)c(F)c2)nc2cncnc2n1C1CC1,–,inactive: -0.591%
c1ccc(-c2nccc(-c3ccco3)n2)nc1,–,inactive: -11.1%
COc1cc(CN(C)CC2CCCN(CCc3ccccc3F)C2)cc(Cl)c1OC (stereo unspecified),"inconclusive: 35.5 µM [inhibitor, single point]",–
O=C(OCC#CCSc1nnc(-c2ccccc2)o1)c1cccs1,–,inactive: 3.98%
CC(NC1c2ccccc2-c2ccccc21)c1ccccc1 (stereo unspecified),"inconclusive: 39.8 µM [fluorescent, side channel, single point]",–
Cc1ccc(CNC(=O)/C(C#N)=C/c2ccc(C)s2)cc1,"inconclusive: 39.8 µM [inhibitor, single point]",–
CCN1CC2=C(OC(N)=C(C#N)C2c2ccccc2)/C(=C\c2ccccc2)C1 (stereo unspecified),"inconclusive: 14.1 µM [fluorescent, side channel, partial curve]",–
CSc1ncccc1C(=O)OCC(=O)Nc1ccc(S(=O)(=O)N2CCCC2)cc1,"inconclusive: 17.8 µM [quencher, side channel, single point]",–
CCN(CC)S(=O)(=O)c1ccc(N/N=C/c2ccc(OC)c(OC)c2OC)nc1,"inconclusive: 3.55 µM [quencher, side channel, single point]",–
COc1ccccc1/C=C/C(=O)Nc1cccc(C(C)=O)c1,"inconclusive: 12.6 µM [quencher, side channel, partial curve]",–
Cc1nnc2ccc(-c3cccc(NC(=O)Cc4cccs4)c3)nn12,"inconclusive: 20 µM [quencher, side channel, partial curve]",–
CC(=O)Oc1c(Cl)cc(Cl)cc1/C=C/c1ccc2ccccc2n1,"inconclusive: 10 µM [quencher, side channel, partial curve]",–
O=C(CCCN1C(=O)/C(=C\c2ccccc2)SC1=S)Nc1cccc(C(=O)O)c1,"inconclusive: 22.4 µM [quencher, side channel, single point]",–
CCN1CCN(CC(=O)Nc2ccc(Cl)c(S(=O)(=O)N(C)C)c2)CC1,"inconclusive: 12.6 µM [inhibitor, partial curve]",–
CCn1ccnc1CNCc1cn(-c2cc(C)ccc2C)nc1-c1ccccc1,"inconclusive: 1.41 µM [inhibitor, full curve, poor fit]",–
CC1(OC(=O)c2ccc(Cl)nc2)C(=O)C=C2C=C(C3CC3)OC=C2C1=O (stereo unspecified),"inconclusive: 35.5 µM [inhibitor, partial curve]",–
Cc1[nH]c2ccccc2c1/C=N\NC(=O)Cn1nnc(-c2ccccc2)n1,"inconclusive: 15.8 µM [quencher, side channel, partial curve]",–

# — PubChem BioAssay AID1768 (National Center for Advancing Translational Sciences (NCATS), 2009)
